The supplement of paper PMC12217912
The list shows a part of the results. The full chains were built here from the parent and the listed change. Inactive controls read about 0.05.

B1: TEV protease; numbered along this chain (parent)
chain: MGESLFKGPRDYNPISSSICHLTNESDGHTTSLYGIGFGPFIITNKHLFRRNNGTLVVQSLHGVFKVKDTTTLQQHLVDGRDMIIIRMPKDFPPFPQKLKFREPQREERICLVTTNFQTKSMSSMVSDTSCTFPSGDGIFWKHWIQTKDGQCGSPLVSTRDGFIVGIHSASNFTNTNNYFTSVPKNFMELLTNQEAQQWVSGWRLNADSVLWGGHKVFMVKPEEPFQPVKEATQL

Variants of: B1
Assay: raw area under fraction-flipped curve 0-4 h after induction (AUC4h, not background-subtracted), DNA-recorder readout of cleavage of the substrate (dimensionless); higher = more cleavage of the substrate by the protease variant
Conditions: temperature: 34 °C; time window: 0-4 h after rhamnose induction
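Note: Bxb1 expression induced with 0.2% (w/v) L-rhamnose at OD600 near 0.5, cultures sampled hourly, flipped fraction per protease–substrate barcode pair counted by paired-end Illumina sequencing.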

Variant | area with substrate ECLYFQS | area with substrate EDLYFQS | area with substrate EELYFQS | area with substrate EGLYFQS | area with substrate EILYFQS | area with substrate EKLYFQS | area with substrate ELLYFQS | area with substrate EMLYFQS | area with substrate EQLYFQS | area with substrate ESLYFQS | area with substrate ETLYFQS | area with substrate EVLYFQS | area with substrate EYLYFQS | area with substrate EFLYFQS | area with substrate EHLYFQS | area with substrate EWLYFQS | area with substrate EPLYFQS | area with substrate ERLYFQS
N177D | 0.0874 | 0.0972 | 0.0903 | 0.116 | 0.0742 | 0.0988 | 0.0758 | 0.0819 | 0.0783 | 0.0736 | 0.0914 | 0.0955 | 0.0822 |  |  |  |  | 
N178E | 0.0694 |  |  |  | 0.0501 | 0.0868 | 0.0556 | 0.064 | 0.0672 | 0.0824 |  | 0.0331 |  | 0.0631 | 0.0475 | 0.0814 |  | 
N178K | 0.0942 | 0.135 |  | 0.0855 | 0.113 |  |  |  |  | 0.0957 |  | 0.103 |  |  | 0.0876 | 0.125 | 0.108 | 0.109
Y179C | 0.054 |  | 0.0616 |  |  | 0.0521 |  | 0.057 |  | 0.0581 |  | 0.0566 |  |  | 0.0547 | 0.0645 |  | 0.0582
F180K | 0.0595 | 0.0661 | 0.0576 | 0.0229 | 0.0538 | 0.057 |  |  | 0.0516 |  |  |  | 0.129 |  | 0.0622 | 0.107 | 0.0507 | 0.0629
F180M | 0.0847 | 0.123 |  | 0.13 | 0.0958 | 0.11 | 0.0964 |  | 0.121 |  |  |  |  |  |  | 0.0889 | 0.132 | 0.101
S182P | 0.11 | 0.112 |  | 0.139 |  |  | 0.0795 |  | 0.121 | 0.132 |  |  |  |  | 0.138 |  |  | 0.132
S182Y | 0.041 |  | 0.0629 |  | 0.0535 | 0.0619 |  | 0.048 | 0.052 | 0.0583 |  |  |  |  | 0.0581 | 0.073 | 0.0696 | 
K185H | 0.119 |  | 0.155 | 0.0869 |  |  |  | 0.129 |  | 0.112 |  | 0.0968 |  |  |  |  |  | 0.0993
N186G | 0.13 | 0.168 |  |  |  |  |  |  |  | 0.108 |  |  | 0.156 |  |  |  | 0.104 | 
M188A | 0.0989 |  | 0.128 | 0.079 | 0.0936 | 0.0936 |  | 0.0937 |  | 0.108 | 0.141 | 0.0837 |  |  |  |  | 0.0985 | 0.12
E189F | 0.089 |  | 0.121 |  | 0.11 | 0.11 | 0.0823 | 0.119 |  | 0.0969 |  | 0.105 |  | 0.0818 | 0.1 | 0.077 | 0.139 | 0.102
A196S | 0.112 | 0.103 | 0.125 | 0.0697 | 0.0849 | 0.114 | 0.0842 | 0.119 | 0.115 | 0.102 |  | 0.0866 |  | 0.0772 |  |  | 0.102 | 
Q197A | 0.124 | 0.115 |  |  |  | 0.0694 |  | 0.1 | 0.11 |  |  | 0.0707 |  | 0.0881 | 0.11 | 0.0581 |  | 0.0671
